The full ranking holds about 33,000 sequences; the median of “E-score (-0.5 to 0.5)” is about -0.041, and the highest 2% start at about 0.37. This is one part of the list.
Biological target: T1, Ecm22 (UniProt Q05958)
T1 sequence: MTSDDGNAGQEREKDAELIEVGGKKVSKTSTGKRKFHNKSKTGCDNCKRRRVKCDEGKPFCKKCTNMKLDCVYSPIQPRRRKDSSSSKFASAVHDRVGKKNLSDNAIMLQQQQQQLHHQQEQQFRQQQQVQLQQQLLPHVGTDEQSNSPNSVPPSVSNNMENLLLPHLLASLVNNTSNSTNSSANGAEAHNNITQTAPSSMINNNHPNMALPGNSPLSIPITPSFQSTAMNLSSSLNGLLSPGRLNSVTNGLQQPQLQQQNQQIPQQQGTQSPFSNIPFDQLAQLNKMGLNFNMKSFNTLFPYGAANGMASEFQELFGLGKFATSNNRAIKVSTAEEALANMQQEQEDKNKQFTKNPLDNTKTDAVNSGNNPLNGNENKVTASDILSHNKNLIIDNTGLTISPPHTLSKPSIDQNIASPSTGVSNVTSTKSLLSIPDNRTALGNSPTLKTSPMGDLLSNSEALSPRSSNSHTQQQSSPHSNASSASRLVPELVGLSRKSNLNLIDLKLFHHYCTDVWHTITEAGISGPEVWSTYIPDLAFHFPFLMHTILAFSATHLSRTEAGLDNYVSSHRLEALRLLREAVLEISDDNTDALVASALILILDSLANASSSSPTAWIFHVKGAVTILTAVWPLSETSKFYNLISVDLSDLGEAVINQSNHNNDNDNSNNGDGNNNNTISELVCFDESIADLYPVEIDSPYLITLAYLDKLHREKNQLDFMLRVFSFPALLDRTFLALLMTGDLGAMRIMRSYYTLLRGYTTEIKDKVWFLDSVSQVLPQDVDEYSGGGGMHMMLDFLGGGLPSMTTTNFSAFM
Test: PBM E-score (8-mer binding enrichment) (E-score (-0.5 to 0.5)); higher = stronger / more preferred TF binding; most listed sequences are background and not binding sites
Details: protein concentration: 200 nM; construct: GST-full length
Procedure, shortened: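 Universal all-10-mer Agilent arrays, double-stranded by primer extension on fresh or once-stripped slides, were probed with about 100-200 nM GST-tagged yeast transcription factors made by PURExpress. Fluorescent anti-GST detected bound protein, and masliner normalised the scans. E-scores from the Universal PBM Analysis Suite were given to each ungapped eight-base word pooled with its reverse complement.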

Sequence	PBM E-score
AATTAAAC	0.219
AGGCTTAG	-0.158
GCAAGGAA	0.076
CAGGTCGG	-0.101
GCAGGAGA	-0.041
ACCACTTA	-0.0146
CTATCCGC	0.24
CTTATTGA	-0.155
GACCCAGC	-0.113
ATACTACG	0.197
CAGCCATC	0.0195
AGCGGGCG	0.00567
ATCTAGGA	-0.11
ATGATAAG	-0.0663
AATAAGGT	-0.00164
ACAAGCGT	-0.0149
ATCTTTAG	-0.174
CCGATGAC	-0.0316
AGTCGCGC	0.0329
CCACTCGG	0.155
TATACGCA	0.415
ACAGCGAT	-0.0162
CGATGACC	0.169
CGTCCTGC	-0.168
CGGCTCCA	-0.132

Sequence	PBM E-score
ACCAATTC	-0.0291
CAAACAGA	-0.00197
ATTCCGCC	-0.0947
CCAGTGCG	0.00947
CATGTTGC	-0.15
GCATTCCA	-0.137
ATGGTGAA	-0.0336
AAAACTAA	0.0384
CTGATGCA	-0.176
ATGAATCC	-0.00732
CGCATCCC	-0.0314
CTCATATA	-0.0079
GTTAAGTA	-0.114
AATATCGA	-0.144
CGCCGGTA	0.0215
ACGGGCCT	0.0347
CACGGGAG	-0.0747
CAGCCGAA	-0.0172
AAACTATT	0.016
GATCCGGC	-0.0487
CGCGAAAC	0.107
CGTACGTA	0.367
AGCGCAGA	-0.0942
TAAAAAAA	-0.134
ACTGTACA	0.0405

Sequence	PBM E-score
GGTTGAGA	-0.262
ACTTCTAC	-0.0305
TATCTGGA	-0.182
AGCGTGTC	-0.146
CACGCCGC	-0.0505
CGCCGACA	-0.0663
ATTCCTAG	-0.229
CGGTGTGC	-0.0703
ACGGCTTG	0.00028
CAGCCAAC	-0.133
CTATATAA	-0.102
AGCGGTAT	0.0733
AATATTCT	-0.0746
CAGAACTG	0.132
CGGACCCA	-0.0301
AACGTGAG	-0.12
AAGGCAGG	-0.371
GTGCATCA	-0.024
GGCAGCTA	-0.0914
AGAGCGTC	0.0691
AGGTCAAT	-0.0803
CCAACCCA	-0.36
ATTCAGGC	0.062
CCACGGTC	-0.118
ACGACCAT	0.322

Sequence	PBM E-score
AAAGGCGA	0.0319
GGCGCTAC	-0.0339
ACACGGTG	-0.0453
CGGATCGA	0.219
GCGGACTA	-0.0818
CGAATTAG	0.0708
CACCTTCG	0.0454
GGGTATAC	0.15
TCGCTGAA	0.188
AACGTGCG	0.201
ATAAGTGG	0.0401
CGCACCAC	0.0793
CTACTTCA	-0.158
AGGCAACA	-0.307
TCGCACAA	0.262
AGGCGGAA	-0.131
GGGCGGTA	-0.161
ATGTAGGC	-0.193
ATACATTG	0.021
CCTCTACG	0.256
GCAGATCA	-0.171
AAACCAAC	-0.201
ATTATAGG	-0.101
ATCGTATA	0.488
AATTACAC	-0.0453

Sequence	PBM E-score
CAAGTGCA	-0.24
CAATAAGG	-0.296
AAACCTAT	-0.218
GCAATTAC	-0.144
TAATCAAA	-0.0825
ATGGCGGC	-0.231
ACTGACCA	-0.0999
ACACCAAT	0.0146
ACCAGGAT	-0.0234
CCTCCGGC	-0.0657
CTATATGA	0.173
TCCTGACA	-0.0171
TCAGCTCA	-0.0482
CACTGACA	0.139
CATCAATG	-0.153
CTGTTCAC	-0.0303
CTCCGGTA	0.0575
AAAGTCTG	-0.284
ACAGGCAG	-0.0137
ACACCTGA	0.079
GTTAGCGA	0.248
AAGGAATC	-0.0813
ATTACCCG	-0.0442
ATGCTTCC	-0.0277
ACACGGCA	0.108

Sequence	PBM E-score
CTCCGCTC	0.0963
AAGACGGT	-0.233
CCGGTGGC	-0.135
AGCCTCAA	-0.184
GCCTTCTA	-0.137
ACCTTATC	-0.0716
CCCACCCG	0.0357
AACTTCGT	0.287
ACCCAATG	-0.323
ACGGCATC	0.135
ATGTACTC	-0.0519
GTTTTTGA	-0.0446
GTTGTGCA	-0.00507
CCGGTATA	0.199
ACGGATCA	0.157
AAATTCTA	0.0181
AGTCAATA	-0.016
AGCGGCGA	0.0628
GCTTTGCC	-0.175
GCTTCCAA	-0.133
CCCGCACA	0.139
AAGGTTGT	-0.276
TTAACTAA	0.0931
AACCTGGG	-0.247
TCCCCACA	-0.207

Sequence	PBM E-score
GCAAAGTA	0.0957
GGGTTCTA	-0.256
AAAGCTTG	0.118
AAAAGCCC	-0.29
AGTGAGGA	0.00222
CCTTACCC	-0.164
CTTCTATA	-0.00732
AATACCCT	-0.0191
CATACGAG	0.481
GCGCAGGA	-0.153
ACCTCAAT	-0.112
AAGTTTCG	0.0964
AAGTGATA	-0.118
TAATTGGA	-0.059
AGTACTTG	0.152
CGATCAGA	0.014
CGAATATA	0.179
AACATGTT	0.0291
CACGGAGA	-0.134
CTCCAGGA	-0.147
GCCGATAA	-0.06
CGGGCACA	-0.0619
CGACCGCC	0.137
TAAAATCA	0.0531
CGGGGCGC	-0.00374

Sequence	PBM E-score
ACGGCGGG	0.051
GGAGCAAA	-0.116
CAAGCCTC	-0.0576
TTCAGAAA	-0.132
ATGTAATG	-0.0662
AACAGGCC	-0.269
CCAAACCC	-0.228
GTTTCCAA	0.0294
GGGTCAAA	0.0713
AGTCCCTA	-0.281
ATAGGATA	-0.101
ATGCGCAG	-0.118
ACGTATAG	0.403
AACTTACC	-0.0146
GACTAAAA	-0.124
CTAACAAC	0.0246
GATCGCTA	0.11
GCACTGGA	-0.0491
AAAGTAGA	-0.156
GCCAATCC	-0.0196
CTCAGGGA	-0.198
CTCGACGA	0.0457
CCTGCTCG	0.27
ATGCGGCA	-0.0733
AAACGCAT	0.0604

Sequence	PBM E-score
TATGATAA	0.126
GTCTAATA	-0.0379
TCGGGAAA	0.193
ATAATCAA	0.00669
ATTTGACA	0.0215
CCATCCGA	0.0205
CGGCGGAG	-0.0217
AGAGTGCC	-0.319
GCAATTTA	0.154
CTAAGGGC	-0.333
CAGCGCAC	-0.186
ATTGCCGG	-0.0664
AGGCTCGG	0.0899
ACTTTACA	-0.00715
TATTGGAA	-0.127
CGCTCTAC	0.208
CGGATAAA	0.352
CCCGACTA	0.0177
GCAGGGGC	-0.243
